Results: the supplement of paper PMC3334620
In all, about 33,000 sequences were measured (“E-score (-0.5 to 0.5)”: median about -0.021, highest 2% from about 0.32 on). The list shows a part of the results.

Biological target: T1, Zap1 (UniProt P47043)
T1 sequence: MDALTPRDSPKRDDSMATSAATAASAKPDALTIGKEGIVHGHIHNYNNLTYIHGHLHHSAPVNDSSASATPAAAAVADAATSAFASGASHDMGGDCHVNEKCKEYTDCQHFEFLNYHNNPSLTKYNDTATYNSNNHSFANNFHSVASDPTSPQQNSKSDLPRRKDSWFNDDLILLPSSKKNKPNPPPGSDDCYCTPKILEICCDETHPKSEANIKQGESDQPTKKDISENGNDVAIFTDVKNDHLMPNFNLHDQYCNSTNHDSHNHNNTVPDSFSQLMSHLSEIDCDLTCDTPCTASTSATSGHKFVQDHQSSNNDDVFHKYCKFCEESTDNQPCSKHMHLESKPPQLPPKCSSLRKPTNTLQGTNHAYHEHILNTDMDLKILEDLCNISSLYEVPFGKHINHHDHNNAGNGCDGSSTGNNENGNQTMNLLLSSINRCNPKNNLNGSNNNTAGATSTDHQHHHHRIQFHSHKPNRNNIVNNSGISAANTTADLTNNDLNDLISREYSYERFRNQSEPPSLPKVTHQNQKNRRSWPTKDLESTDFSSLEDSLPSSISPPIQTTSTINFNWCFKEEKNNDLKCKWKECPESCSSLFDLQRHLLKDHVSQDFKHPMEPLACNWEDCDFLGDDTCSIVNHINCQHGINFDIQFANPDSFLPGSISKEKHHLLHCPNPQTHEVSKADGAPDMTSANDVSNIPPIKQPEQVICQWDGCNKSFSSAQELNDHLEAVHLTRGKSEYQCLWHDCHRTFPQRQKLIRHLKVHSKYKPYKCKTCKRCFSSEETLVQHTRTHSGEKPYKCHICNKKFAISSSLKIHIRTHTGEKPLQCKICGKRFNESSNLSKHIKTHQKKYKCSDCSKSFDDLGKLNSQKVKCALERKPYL
Test: PBM E-score (8-mer binding enrichment) (E-score (-0.5 to 0.5)); higher = stronger / more preferred TF binding; most listed sequences are background and not binding sites
Settings: protein concentration: 200 nM; construct: GST-full length
How it was run: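 The E-score, a modified Wilcoxon-Mann-Whitney statistic, was computed by the Universal PBM Analysis Suite for every ungapped eight-base word pooled with its reverse complement. Scans behind it were normalised with masliner after bound GST-tagged yeast transcription factors were detected with fluorescent anti-GST. The proteins, at about 100-200 nM, had been applied to universal all-10-mer Agilent arrays made double-stranded by primer extension.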

Sequence	PBM E-score
CATGCTAA	0.059
CGTCGGAG	-0.0618
GGGCGCCC	-0.0198
CACGTCTC	-0.172
ATAAACCG	0.0813
CTAATGCA	0.132
GCGCACCC	-0.0431
GCCTGAAA	-0.142
ACACACGG	0.00569
AACCGACC	0.0414
CAACGCAG	-0.145
ATGCTGAG	-0.211
GAATAACC	0.438
AATAAGCC	-0.0972
CGCAGTTA	-0.00805
ACTGGTCT	-0.11
ATGAGCAT	0.049
CCGCCTGA	-0.0511
CAGGTTTA	-0.0228
TAAGACGA	-0.0597
ATGAGAAA	0.0758
AGCGATGA	0.0915

Sequence	PBM E-score
ACTAGACT	-0.138
AGTGTCAA	0.0427
ACAAAGTC	-0.039
ACGGTGCC	-0.0533
CAGATATC	-0.0643
CCGCTGAC	0.0922
AGTGAAAA	0.0524
ACCTAGGT	0.26
CCCGCACG	-0.0186
GTATCGCA	0.0307
GAATCACC	0.151
CGGGACCG	-0.142
TCAATCGA	-0.0137
ATCCCAAA	0.0704
CAGAGTGG	-0.0992
AGAAACAG	0.0469
ACGTAGTG	-0.211
AGACGCCT	-0.214
CATTAGGG	0.228
AAAGTAGT	0.0501
GATTACCA	0.141
ACATCACA	0.00816

Sequence	PBM E-score
GCCGATTA	0.0151
GCGTCAGA	-0.171
AACTACTA	0.0861
CCAGGCCC	-0.0933
ATTGCCCC	-0.236
CCTACTAC	0.0486
GGCCTACC	0.092
GCCGTGCA	-0.0302
TAACTGGA	-0.0565
AACTTTTA	0.117
CCTCGTAC	0.107
CCTAGGTC	0.0805
ATGAGTAC	0.0266
GCTTTACC	0.121
CCTCAAAA	0.258
CTGTCAAG	-0.11
GGAACCCC	0.112
CTGACAAG	0.0328
AAGACGCC	0.00252
CTAATATA	0.0961
AGGCCAGG	-0.176
ATCAAAAG	-0.022

Sequence	PBM E-score
AGTAAGCC	-0.192
CCAATTCG	0.187
ATTTCGCA	0.16
AAGGTCTG	0.15
CGTAAGTA	0.0115
AGATAAGC	-0.0625
CCCAAAGG	0.23
CTCACATC	-0.0546
CAACCAAA	0.213
AGGGAGAA	-0.148
AACTCTAC	-0.124
ACAAGTAG	-0.099
CCTCTTAA	0.179
CATTGCTA	0.0595
CCACTACA	-0.0603
GTGCAATA	0.0673
AAATGCGC	0.138
GATAATGA	0.147
GACCCATA	0.259
AACCGTTA	0.224
AAGAAAGT	0.0759
AGGTGTCC	0.184

Sequence	PBM E-score
ACTCACGC	-0.0661
GGTCATCA	0.241
CATCGTAA	0.207
ACTCTATA	-0.0812
AGGGACCC	0.081
CATATATA	0.13
GAGCTACA	-0.242
CGCCGTTC	-0.0417
CCTGAGAC	-0.047
ACGATCGG	-0.0894
TCCTTTCA	-0.122
AGTAAAGC	-0.036
AACCGCCG	0.173
AACAGGAC	0.121
AGACAATG	0.00616
CAAGATAA	0.0722
ATAATGGG	0.0947
ATATGTAA	0.132
CGGACGAC	-0.0685
ACTCCGTA	-0.0213
AGACCAGC	-0.234
ACGGAACT	-0.178
